# Measured values taken from PubChem BioAssay AID1347071 (National Center for Advancing Translational Sciences (NCATS), 2019).
# About 260 (0.063%) of roughly 410,000 compounds were called active. Inconclusive means that the source gave no clear call. Such entries were picked first, then a sample of the others. Calls come from the whole dose curve; as a rule, active = well fitted activation curve with a large enough effect; inconclusive = small, poorly fitted or top-dose-only effect; inactive = no such curve, though single readings can be large or run the other way. Potencies of inconclusive entries are left out as doubtful fits.
# Experiment: qHTS for compounds that reverse cellular toxicity of Amyloid beta (A-beta) peptide in yeast: Primary Screen; note: nearly all actives have a fitted effect of over 55% in size
# Details: yeast expressing A-beta42, growth rescue, OD600, 48 h; growth rescue: at 46.1 µM (top of the series), 0% DMSO, 100% iron-clioquinol control
# Procedure, shortened: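 Growth rescue measured by 600 nm absorbance after 48 h yeast culture at 30 C with compound. Values normalized between DMSO and an equimolar ferric chloride plus clioquinol control.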
# Potency is the fitted concentration of half-maximal effect; tags give direction and shape of the fitted curve.
SMILES,Potency,growth rescue
COc1ccccc1-n1c(-c2ccc(Cl)cc2)c[nH]c1=S,"inconclusive [activator, single point]",
C/C(=N/NS(=O)(=O)c1ccc(Cl)cc1)c1ccc2c(c1)OCO2,"inconclusive [activator, partial curve, poor fit]",
CC1CCC2CCCCC2N1C(=O)c1cc([N+](=O)[O-])cc([N+](=O)[O-])c1 (stereo not drawn),"inconclusive [activator, partial curve, poor fit]",
COC(=O)c1sccc1NC(=O)Nc1ccccc1C,,inactive: 22.3%
COc1ccc(Oc2nc(-c3ccccn3)ncc2OC)cc1,"inconclusive [activator, single point]",
Cc1onc(-c2ccc(Cl)cc2Cl)c1C(=O)/C=C/N(C)C,"inconclusive [activator, partial curve, poor fit]",
FC(F)(F)c1ccc(N2CCN(c3ncnc4c3nnn4Cc3ccccc3)CC2)nc1,,inactive: 20.7%
S=C(NCc1ccco1)Nc1ccc(Br)cn1,"inconclusive [activator, partial curve]",
CCC(=O)Nc1ccc(Nc2ccccc2)cc1,"inconclusive [activator, partial curve, poor fit]",
c1ccc2c(c1)OCC(c1csc3ncnc(N4CCOCC4)c13)O2 (stereo not drawn),,inactive: 9.66%
COc1ccc(C(C)(O)c2nc(-c3ccc(F)c(Cl)c3)cs2)cc1 (stereo not drawn),"inconclusive [activator, single point]",
CC(=O)Nc1ccc(NS(=O)(=O)c2c(Cl)cccc2Cl)cc1,,inactive: 6.66%
CCCN(C(=O)c1cc2c(=O)oc3ccccc3c2s1)c1ccccc1C,,inactive: -13.8%
CCC(C)NC(=O)Cn1c(=O)ccc2cc(S(=O)(=O)N3CCCC3)ccc21 (stereo not drawn),,inactive: -4.32%
O=c1[nH]c2ccc(Cl)cc2c(O)c1-c1ccccc1,"inconclusive [activator, partial curve, poor fit]",
Cc1cc(=O)[nH]c(-n2nc(C)c(Oc3ccccc3O)c2C)n1,"inconclusive [activator, single point]",
CCOc1ccccc1O[C@H](c1ccccc1)[C@H]1CNCCO1,,inactive: -11.5%
Cc1ccc2cc(C(c3nnnn3C3CCCC3)N(Cc3cccnc3)Cc3ccco3)c(=O)[nH]c2c1 (stereo not drawn),,inactive: -5.61%
CCC(=O)N(CCc1ccccc1C)Cc1cc2ccc(C)cc2[nH]c1=O,,inactive: 6.87%
COc1ccc(/C=C2/CCc3ccccc3C2=O)cc1OC,,inactive: -24%
CC1(C(=O)Nc2ccc(F)c(Cl)c2)Cc2c(-c3cccc(C(F)(F)F)c3)ccnc2O1 (stereo not drawn),"inconclusive [activator, partial curve, poor fit]",
COCCCNC(=O)CSC1=Nc2ccccc2C2=NC(CC(=O)NCc3ccccc3)C(=O)N12 (stereo not drawn),,inactive: 9.35%
COc1ccc(CCNC(=O)COc2ccc(N(C)S(=O)(=O)c3ccc(C)cc3)cc2)cc1,"inconclusive [activator, single point]",
CCOc1ccccc1C1CC(=O)Nc2cc(C)c(C)cc21 (stereo not drawn),,inactive: 6.55%

SMILES,Potency,growth rescue
CCCC(O)(c1ccc(Br)cc1)C(CN1CCOCC1)c1ccc(Cl)cc1 (stereo not drawn),"inconclusive [activator, partial curve, poor fit]",
CCCCOC(=O)c1ccc(NC(=O)c2cnc3ccc(C)cn3c2=O)cc1,,inactive: -16.2%
COc1ccc(CCC(=O)N(C)CC(=O)Nc2ccc(Cl)c(C(F)(F)F)c2)cc1,"inconclusive [activator, single point]",
CCOC(=O)c1nc(N)c(C(=O)OCC)[nH]1,,inactive: 4.03%
O=C(c1cc(-c2ccc(O)cc2)on1)N1CCN(c2ccccc2)CC1,inactive,
COc1ccc(NC(=O)c2sc(-c3ccccc3)nc2C)c(OC)c1,,inactive: -27.5%
COc1ccc(Nc2c(-c3ccccn3)nc3ccc(Cl)cn23)cc1,"inconclusive [activator, partial curve, poor fit]",
COc1cc2c(cc1OC)C(C)N(C(=O)c1sccc1C)CC2 (stereo not drawn),,inactive: -10.1%
CCOc1cc(CNC(=O)Cn2c(-c3cccs3)cc3cc(F)ccc32)ccc1OC,,inactive: 1.04%
Cc1cc(C)n2nc(C(=O)OCCOc3cccc(Br)c3)nc2n1,"inconclusive [activator, single point]",
COCCCN1CN=C(NS(=O)(=O)c2ccc(C)cc2)NC1,"inconclusive [activator, partial curve, poor fit]",
COc1ccc2c(c1)NC(c1cccnc1)=NC(c1ccc(F)cc1)=N2,,inactive: 4.26%
CC(C)(C)N(Cc1ccccc1)C(=O)CSc1nnc(CNc2ccc(F)cc2)o1,"inconclusive [activator, full curve, poor fit]",
COc1ccc(Cc2nnc(NC(=O)C3CC(=O)N(CCc4ccc(F)cc4)C3)s2)cc1OC (stereo not drawn),"inconclusive [activator, partial curve, poor fit]",
COc1cccc(C(=O)NC(=S)Nc2ccccc2N2CCCC2)c1,"inconclusive [activator, partial curve, poor fit]",
Cc1cccc(NS(=O)(=O)c2ccc3c(c2)CCN3C(=O)C2CCC2)c1,,inactive: 4.38%
NC(=S)N/N=C/c1ccc(-c2cc(Cl)c(Cl)cc2Cl)o1,active: 12.6 µM,
O=C(O)Cc1csc(Nc2cccc(Cl)c2)n1,"inconclusive [activator, full curve, poor fit]",
COc1ccc(C(=O)NC(=S)NNC(=O)c2ccc(C)cc2)cc1,"inconclusive [activator, full curve, poor fit]",
CCn1cc(CN2CCN(C)C(CCO)C2)c2ccccc21 (stereo not drawn),"inconclusive [activator, full curve]",
O=C1OC(/C(=C\Nc2ccc(F)cc2F)[N+](=O)[O-])c2ccccc21 (stereo not drawn),,inactive: 20.3%
Cc1ccc(C(c2sc3nc(-c4ccco4)nn3c2O)N2CCC3(CC2)OCCO3)cc1 (stereo not drawn),,inactive: 0.68%
CCOc1ccc(C(=S)N2CCCC2)c(OCC)c1,"inconclusive [activator, single point]",
O=C(Nc1ccc(F)c(F)c1)c1ccccc1-c1ccccc1,active: 7.08 µM,
